Data on 57 sequences can be found in the supplement of paper PMC11417369.

± gives the standard deviation of the averaged measurements. This is one part of the list.

The subject of the assay is PfAP2-I AP2 domain 3 (GST-tagged). As to the kind of experiment: gcPBM binding intensity (ln(normalized median fluorescence intensity)); higher = stronger DNA binding. The essentials: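 An Agilent 4 × 180k array of primer-extended double-stranded 36-bp intergenic genomic probes, with negative controls, was incubated for 1 h with GST-tagged P. falciparum DNA-binding domains expressed in E. coli. Alexa488 anti-GST antibody detected bound protein, scanned at 488 nm. Binding intensity is the highest Masliner-normalised natural-log median intensity across replicate spots of either probe orientation.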
With “ACCTTATAAAAAAAAAGTACATATATAAATAATAAA [XGTACX_site4338]”, the “gcPBM binding intensity (ln)” value was determined as 8.29 ± 0.13. For the sequence “TCAAATAATTTGTTGACACACACACCCACATACATA [CACACA_site8717]”, the “gcPBM binding intensity (ln)” value stood at 8.205 ± 0.064. Under “ATATTTTTTACTATTACACACAAGGGATTATTATTT [CACACA_site3915]” stands 7.99 ± 0.69; under “TATACATAATATATATGTACATATATTCTTTATTTT [XGTACX_site4565]”, 7.76 ± 0.28. In the case of “AAACAATAAAAGATTACACACATATATAGCATATAT [CACACA_site1698]”, the “gcPBM binding intensity (ln)” value was determined as 7.76 ± 0.61. The result for “ATATCAAATTCTGAAACACACAAAATTACACCTCTA [CACACA_site169]” reads 7.72 ± 0.55; that for “TTTTCGATATGCTTTTTTTTTCTACTGTCTTTTTAA [TGCATGCA_negctrl_site54]”, 7.55 ± 0.64; that for “TTACTTAATAGACACACACACAAAAAAAAAAAAAAA [CACACA_site6572]”, 8.12 ± 0.49. The result for “CACATACATAAATACACACACAAAATAATAAAATAA [CACACA_site5304]” reads 7.9 ± 0.27; that for “CAAAAATATTATTATAGTACATAAATAATATATTTT [XGTACX_site6902]”, 7.41 ± 0.31; that for “TAAAAATAGGAGTGTGTGCACATAAATTATATACTA [GTGCAC_site9405]”, 10.1 ± 0.39. Take “TATATATATATTTTTTGTACATATTATATAATATAC [XGTACX_site5187]”: the “gcPBM binding intensity (ln)” value stood at 9.025 ± 0.064. Under “AAAAAAAAAAAAAAAAAAAAACACCCAAAAAAATAT [XGTACX_negctrl_site210]” stands 9.74 ± 0.071; under “GAAAGACAAATTGTGACACACACAAAAAAAAAAAAA [CACACA_site9241]”, 7.99 ± 0.71. The result for “TTTTCATTTTTCTTTACACACATATATATATATATA [CACACA_site2236]” reads 9.52 ± 0.18; that for “TAAAAAAAAACAGAAACACACATTATTCATATAGAT [CACACA_site7052]”, 7.5 ± 0.56. Under “AAAAGCACCGTTCGTTGTACACTGAAACACTTTTGT [XGTACX_site199]” stands 8.2 ± 0.76; under “GTTATAAATTTTTTTTTTTTTTTTTTTTTTTTTTTT [CACACA_negctrl_site848]”, 9.9 ± 0.13; under “AACAAATTGAAACAATAATTGGAAAAAAAAAAAAAA [CACACA_negctrl_site1145]”, 8 ± 0.76. Regarding “AACAAATACGGACACACACACACACTAGAAAAAAAA [CACACA_site4442]”, the “gcPBM binding intensity (ln)” value is 8.4 ± 0.11.

With “ATAAAATAAAAGGAATGTACTTTTTTTATTGTAATT [XGTACX_site4372]”, the “gcPBM binding intensity (ln)” value amounted to 7.76 ± 0.4. In the case of “ATTTTTTTCCACTAGTGTACAAATTTTACATTGTGT [XGTACX_site5023]”, the “gcPBM binding intensity (ln)” value stood at 8.52 ± 0.47.

“ACTAATGTAAAAGTTTGTACATATATTGAGAATTAT [XGTACX_site7439]”: the “gcPBM binding intensity (ln)” value came to 7.69 ± 0.52.

Regarding “AAGAAAAAAACAAAAAAAAAAAAAAAAATTCTTATT [TGCATGCA_negctrl_site504]”, the “gcPBM binding intensity (ln)” value worked out at 7.07 ± 0.47. Under “CTATAATATTAGTGCACACACAAAAATGTACTAAAC [CACACA_site6442]” stands 11.6 ± 0.62; under “TCGCAAATAAATTAATGTACACATATATATATATAT [XGTACX_site5145]”, 9.39 ± 0.56. On to “TTTTCAATTTTTTATGAACACACAAAAAAAAAAAAA [CACACA_site8808]”, for which the “gcPBM binding intensity (ln)” value is 8.11 ± 0.61. The result for “TATTGATAATTTTATATATACATACATAAATAAATA [CACACA_negctrl_site1687]” reads 7.28 ± 0.44.

As to “ATAAACTGAGTGGTTACACACAAAACCAATAATTTT [CACACA_site3478]”, the “gcPBM binding intensity (ln)” value is 7.61 ± 0.64. For the sequence “AAATGTATATATGTATGTACATATATATATATATAT [XGTACX_site5778]”, the “gcPBM binding intensity (ln)” value worked out at 9.3 ± 0.71. The result for “AGTTTCTATTTAGTGTGTACTTAAGAAAAATATCTC [XGTACX_site82]” reads 7.88 ± 0.4; that for “ATATATATATATATATGTACTCATATTTTATTATTT [XGTACX_site898]”, 9.28 ± 0.35. Take “TAAAGCGACATTTGGAAAATATATATCCTAGCATTT [CACACA_negctrl_site327]”: the “gcPBM binding intensity (ln)” value amounted to 7.35 ± 0.78.

For “AAAATACACAGACACACACACATATAAATAAATATT [CACACA_site7871]”, the “gcPBM binding intensity (ln)” value was 7.93 ± 0.4. The result for “ATTCGTTATAAAATATGTACATAAATATATATATAT [XGTACX_site2819]” reads 9.095 ± 0.035; that for “TATTCGTGCAATAGTAGTACACTTAAAAATTATTCA [XGTACX_site269]”, 10.5 ± 0.42; that for “ACATAGATGCATATCACACATAATAATATTGTCGTA [CACACA_site4819]”, 7.68 ± 0.67. In the case of “TTATAAAATAAACTTACACACATGAAATATTATATT [CACACA_site1945]”, the “gcPBM binding intensity (ln)” value amounted to 7.39 ± 0.48.

“TATTTGTGGATTTTTACACACATTAATATATATATA [CACACA_site3375]”: the “gcPBM binding intensity (ln)” value stood at 8.75 ± 0.042. As to “AGGAAAATTATGAATGGTACAGAATATATTAGGAGA [XGTACX_site6282]”, the “gcPBM binding intensity (ln)” value was found to be 8.05 ± 0.74. For the sequence “AAACAAAATAAATATGAACACACACCGTTATGCCTT [CACACA_site8347]”, the “gcPBM binding intensity (ln)” value came out at 7.61 ± 0.78. Under “AATAAGTTATTATTTTGTACACATAAATAATACGTT [XGTACX_site814]” stands 7.74 ± 0.49. The result for “GCACTAAAAAAATAAACACACAGATTTATATAATAT [CACACA_site1381]” reads 7.76 ± 0.54; that for “ATATATGCATATATTTGTACACATTTTTTTACATAA [XGTACX_site4624]”, 8.27 ± 0.52.

As to “AAAAAAACGTAAAAATGTACTTTTTGTATATAACCT [XGTACX_site7950]”, the “gcPBM binding intensity (ln)” value came out at 7.71 ± 0.47. Under “AAGGAACTATAATATACACACATAAGTGTACTTATA [CACACA_site7816]” stands 7.9 ± 0.057; under ATTTCTTTTGTTATAGTGCATAATATTTATGTACGT, 10.8 ± 0.49. The result for “AAAGAAAGAAAGAAAAGTACTTAAACTTTTAAAAAT [XGTACX_site8531]” reads 7.51 ± 0.69; that for “AATAATAATAAAAATAAACACACATATATATGTATA [CACACA_site8928]”, 7.57 ± 0.28. The result for “TAACTATCATGTATTACACACAATATTTATTATATA [CACACA_site2701]” reads 7.88 ± 0.46; that for “TTAAATAAATAAATAACACACATATAAAAATAACGC [CACACA_site3266]”, 8 ± 0.56. With “ATATTAATATATAGAAGTACTCACATGTTAATATAA [XGTACX_site7323]”, the “gcPBM binding intensity (ln)” value worked out at 7.83 ± 0.47. The result for “AAGACAAATTTTACATGTACAAATATATTACATATA [XGTACX_site7060]” reads 7.79 ± 0.57; that for “AAGAAAAAAAGCAACACACGTACCAACACAATTATG [CACACA_site3133]”, 8.15 ± 0.65. The result for “TATTCAAATTTCCACATACACACCTTGTAGATATAT [CACACA_site281]” reads 7.97 ± 0.45; that for “GTAGACTGAAACCACACACACATATATATATATATT [CACACA_site605]”, 7.89 ± 0.59; that for “TAATATTTCGCACTGTGTACTGAAATATTTATATCG [XGTACX_site516]”, 8.99 ± 0.028.
